The list shows a part of the results.

Experimental findings from the antibiotic and cytotoxicity screens of Wong et al. (2023) are described below.

In one test the test system is HSkMC. The test can be described thus: cytotoxicity call (relative viability < 0.9). The note with it: 10 µM.
The test system of a further test is HepG2. The test can be described thus: cytotoxicity call (relative viability < 0.9). To be noted: 10 µM.
For a further test, the system named is S. aureus RN4220. The experiment in a line: growth inhibition call (relative growth <= 0.2). The note with it: 50 µM.

For `CC(C)NC(=O)N(C)C[C@H]1OCCCC[C@H](C)Oc2ccc(NC(=O)C3CCCCC3)cc2C(=O)N([C@@H](C)CO)C[C@H]1C`, the cytotoxicity call with HSkMC and with HepG2 was “inactive” throughout. For the same compound, the growth inhibition call with S. aureus RN4220 is “inactive”.

Turning to `CCc1nc2ccc(C(=O)N3CCN(S(=O)(=O)CC)CC3)cn2c1N(C)C(=O)c1cccc(OC)c1`, the cytotoxicity call with HSkMC and in the test on HepG2 was “inactive” in each case. Moreover, in the test with S. aureus RN4220, the growth inhibition call is “inactive”.

On to `C[C@H](CO)N1C[C@H](C)[C@H](CN(C)Cc2ccc(C(=O)Nc3ccccc3N)cc2)Oc2ccc(NC(=O)Nc3ccc4c(c3)OCO4)cc2C1=O`, for which the cytotoxicity call with HSkMC and in the test with HepG2 was “inactive” each time. The growth inhibition call in the test with S. aureus RN4220 is “inactive”.

In the case of `COc1ccc(CN(C)C[C@@H]2OCCCC[C@@H](C)Oc3ccc(NC(=O)NC(C)C)cc3C(=O)N([C@@H](C)CO)C[C@@H]2C)cc1`, the cytotoxicity call with HSkMC and in the test with HepG2 was “inactive” in each case. For the same compound, the growth inhibition call in the test with S. aureus RN4220 was “inactive”.

For `O=C(CN1CCOCC1)NCC[C@@H]1CC[C@@H](NS(=O)(=O)c2ccc(Cl)cc2)[C@H](CO)O1`, the cytotoxicity call in the test on HSkMC and in the test with HepG2 was “inactive” in each case. In addition, the growth inhibition call with S. aureus RN4220 was “inactive”.

In the case of `C[C@@H]1CN([C@H](C)CO)C(=O)Cc2cc(NC(=O)CCCN(C)C)ccc2O[C@H]1CN(C)S(=O)(=O)c1cccs1`, the cytotoxicity call in the test on HSkMC and in the test with HepG2 was “inactive” each time. Moreover, in the test on S. aureus RN4220, the growth inhibition call is “inactive”.

For the compound `COc1ccc(S(=O)(=O)N(C)C[C@@H]2Oc3ccc(NC(=O)c4ccncc4)cc3CC(=O)N([C@@H](C)CO)C[C@@H]2C)cc1`, the cytotoxicity call with HSkMC and in the test on HepG2 was “inactive” each time. In addition, the growth inhibition call in the test on S. aureus RN4220 was “inactive”.

In the case of `O=C(CCCCCCC(=O)Nc1ccc([C@H]2O[C@@H](COc3ccccc3)C[C@H](c3ccccc3)O2)cc1)NO`, the cytotoxicity call with HSkMC and in the test with HepG2 was “inactive” throughout. Further, the growth inhibition call in the test on S. aureus RN4220 was “inactive”.

In the case of `CC(=O)N1CCS(=O)(=O)[C@H]2CCN(S(=O)(=O)Cc3ccccc3)CC[C@@H]21`, the cytotoxicity call in the test with HSkMC and in the test on HepG2 was “inactive” each time. Moreover, in the test on S. aureus RN4220, the growth inhibition call is “inactive”.

Take `O=C(CS)NCCCCCCNC(=O)[C@@H]1C[C@@H]2C(=O)NCC(=O)N2[C@@H]1c1cccc(OCCO)c1`: the cytotoxicity call with HSkMC and in the test on HepG2 was “inactive” in each case. Moreover, in the test with S. aureus RN4220, the growth inhibition call is “inactive”.

Turning to `CN(C)CCCN1C(=O)[C@@]2(Cc3ccccc31)c1ccccc1C(=O)N(C1CCCCC1)[C@H]2c1ccc(CO)cc1`, the cytotoxicity call in the test on HSkMC and in the test on HepG2 was “inactive” throughout. For the same compound, the growth inhibition call with S. aureus RN4220 is “inactive”.

Consider `C[C@@H]1CCCCO[C@H](CN(C)C(=O)Nc2ccccc2)[C@H](C)CN([C@H](C)CO)C(=O)c2cc(NC(=O)Nc3ccc(C(F)(F)F)cc3)ccc2O1`, for which, in the test on HSkMC, the cytotoxicity call was “inactive”. In addition, the cytotoxicity call in the test on HepG2 is “active”. Besides, the growth inhibition call in the test with S. aureus RN4220 is “inactive”.

Consider `C[C@@H]1CN([C@H](C)CO)C(=O)c2cc(NC(=O)Nc3ccc(C(F)(F)F)cc3)ccc2O[C@@H](C)CCCCO[C@@H]1CN(C)S(=O)(=O)c1ccc(Cl)cc1`, for which the cytotoxicity call in the test with HSkMC and in the test with HepG2 was “inactive” throughout. The growth inhibition call in the test on S. aureus RN4220 is “inactive”.

Turning to `C[C@H]1CN([C@@H](C)CO)C(=O)c2cc(C#Cc3ccccn3)cnc2O[C@H]1CN(C)C(=O)c1cnccn1`, the cytotoxicity call in the test on HSkMC and in the test with HepG2 was “inactive” in each case. Further, the growth inhibition call in the test with S. aureus RN4220 was “inactive”.

Turning to `C[C@@H]1CN([C@H](C)CO)C(=O)c2cc(NC(=O)Nc3cccc4ccccc34)ccc2O[C@@H]1CN(C)Cc1ccncc1`, the cytotoxicity call in the test on HSkMC (human skeletal muscle cells) and with HepG2 was “inactive” throughout. In addition, in the test with S. aureus RN4220, the growth inhibition call is “inactive”.

As for `c1cncc(OCc2nnn3c2CNCCC3)c1`, the cytotoxicity call in the test with HSkMC and with HepG2 was “inactive” each time. Also, in the test with S. aureus RN4220, the growth inhibition call was “inactive”.

As to `C[C@@H]1CCCCO[C@@H](CN(C)Cc2ccc(C(=O)O)cc2)[C@@H](C)CN([C@H](C)CO)C(=O)c2cc(NC(=O)CCC(F)(F)F)ccc2O1`, the cytotoxicity call in the test with HSkMC and in the test on HepG2 was “inactive” throughout. In the test with S. aureus RN4220, the growth inhibition call was “inactive”.

As for `COC(=O)c1c(CC[C@@H](CO)NC(=O)N[C@H](Cn2cc(-c3cncn3C)nn2)C(C)C)oc(C(C)=O)c1C(=O)OC`, the cytotoxicity call in the test with HSkMC and in the test with HepG2 was “inactive” throughout. Besides, the growth inhibition call in the test with S. aureus RN4220 is “inactive”.

With `COc1ccc(-c2cnc3c(c2)C(=O)N([C@H](C)CO)C[C@H](C)[C@@H](CN(C)S(=O)(=O)c2ccc(OC)cc2)O3)cc1`, the cytotoxicity call in the test with HSkMC and in the test on HepG2 was “inactive” throughout. Also, in the test on S. aureus RN4220, the growth inhibition call was “inactive”.

For the compound `C[C@H]1CN([C@@H](C)CO)C(=O)Cc2cc(NC(=O)Nc3ccc(C(F)(F)F)cc3)ccc2O[C@H]1CN(C)C(=O)Nc1ccccc1`, the cytotoxicity call with HSkMC is “active”. In addition, in the test with HepG2, the cytotoxicity call was “inactive”. Further, the growth inhibition call with S. aureus RN4220 is “inactive”.

Consider `C[C@@H]1CN([C@H](C)CO)C(=O)Cc2cc(NC(=O)Nc3cccc4ccccc34)ccc2O[C@@H]1CN(C)Cc1ccc2c(c1)OCO2`, for which, in the test with HSkMC, the cytotoxicity call was “inactive”. Besides, the cytotoxicity call in the test on HepG2 was “active”. Also, the growth inhibition call in the test with S. aureus RN4220 was “inactive”.

Consider `Cc1ccc(S(=O)(=O)N(C)C[C@@H]2OCCCC[C@@H](C)Oc3ccc(NS(C)(=O)=O)cc3C(=O)N([C@@H](C)CO)C[C@H]2C)cc1`, for which the cytotoxicity call in the test with HSkMC and in the test on HepG2 was “inactive” in each case. In addition, the growth inhibition call in the test on S. aureus RN4220 was “inactive”.

`Cc1noc(C)c1NC(=O)N(C)C[C@@H]1Oc2ccc(NS(=O)(=O)c3c(C)noc3C)cc2C(=O)N([C@H](C)CO)C[C@H]1C`: the cytotoxicity call with HSkMC and in the test with HepG2 was “inactive” each time. For the same compound, the growth inhibition call in the test with S. aureus RN4220 is “inactive”.

Regarding `Cc1ccc(S(=O)(=O)N(C)C[C@H]2OCCCC[C@H](C)Oc3ccc(NC(=O)Nc4ccc(F)cc4)cc3C(=O)N([C@@H](C)CO)C[C@@H]2C)cc1`, the cytotoxicity call in the test with HSkMC and with HepG2 was “inactive” throughout. In addition, the growth inhibition call with S. aureus RN4220 is “inactive”.
